Measurements published in patent EP1366764A1, “Method of screening for calcium receptor-active molecules” (The Brigham & Women's Hospital, Inc., priority 1993, dated 1994).
“Also recorded” adds a separate entry of the source. Like-named read-outs stand apart in the source and are kept apart here.

Test system: bovine parathyroid cells
Test: Measurement of cytosolic Ca2+ ([Ca2+]i, fura-2): mobilization of intracellular Ca2+ in bovine parathyroid cells
Assay type: cell-based
Details: for effect on basal [Ca^2+]i or increases in [Ca^2+]i evoked by extracellular Ca^2+: tested at 1 µM; for EC50: read-out: EC50 for the mobilization of intracellular Ca^2+, bovine parathyroid cells, fura-2, 0.5 mM extracellular Ca2+, "inactive" = no change in [Ca2+]i at 1 mM or 1-5 mM (footnote); for potentiation of the mobilization of intracellular Ca^2+ elicited by extracellular divalent cations / change in [Ca^2+]i: 100 µM; for change in [Ca^2+]i: low extracellular Ca2+ (0.5 mM); for effect on [Ca^2+]i (cytosolic Ca^2+ transients): tested at 500 µM

**Q.** CC1=C(C(=O)OC(C)C)C(c2cccc3nonc23)C([N+](=O)[O-])=C(C)N1 (single isomer, unassigned; (-)) [(-) 202-791] was tested. Which “effect on basal [Ca^2+]i or increases in [Ca^2+]i evoked by extracellular Ca^2+” value did it give?
**A.** None

**Q.** NCCCCCCCCCCCCN [1,12-diaminododecane (DADD), 1,12-diaminododecane] was tested. Which EC50 (Bos taurus) did it give?
**A.** 3000 µM

**Q.** Which “increases in [Ca^2+]i” value (400 µM) does the source give for NC(=O)C[C@H](NC(=O)Cc1ccc(O)cc1O)C(=O)NCCCCCNCCCNCCCNC(=O)[C@@H](N)CCCN=C(N)N [Argiotoxin-636] here?
**A.** did not elicit increases in [Ca^2+]i

**Q.** And the “effect on [Ca^2+]i” value (tested at similar concentrations (100 to 300 µM))?
**A.** without effect

**Q.** With NC(=O)C[C@H](NC(=O)Cc1c[nH]c2cccc(O)c12)C(=O)NCCCCCNCCCNCCCNC(=O)[C@@H](N)CCCN=C(N)N [Argiotoxin-659] as the compound, how does the EC50 read?
**A.** 300 µM

**Q.** COC(=O)C1=C(C)NC(C)=C([N+](=O)[O-])C1c1ccccc1C(F)(F)F (centres unmarked) [BAY K 8644] was tested. Which “effect on basal [Ca^2+]i or increases in [Ca^2+]i evoked by extracellular Ca^2+” value did it give?
**A.** None

**Q.** With COc1ccc(CCN(C)CCCC(C#N)(c2cc(OC)c(OC)c(OC)c2)C(C)C)cc1OC [D-600] as the compound, how does the “potentiation of the mobilization of intracellular Ca^2+ elicited by extracellular divalent cations” value (“potentiation” below) read?
**A.** potentiated the mobilization of intracellular Ca^2+

**Q.** What about the “change in [Ca^2+]i” value of the same compound?
**A.** evoked no change in [Ca^2+]i

**Q.** With CCCC(=O)N[C@@H](Cc1ccc(O)cc1)C(=O)NCCCCNCCCNCCCN [Philanthotoxin-433] as the compound, how does the “effect on [Ca^2+]i (cytosolic Ca^2+ transients)” value read?
**A.** without effect

**Q.** CCN(CC)CCCCCCCCOC(=O)c1cc(OC)c(OC)c(OC)c1 [TMB-8] was tested. Which “potentiation” value did it give?
**A.** potentiated the mobilization of intracellular Ca^2+; also recorded: potentiated transient increases in [Ca^2+]i

**Q.** And the “change in [Ca^2+]i” value?
**A.** evoked no change in [Ca^2+]i

**Q.** With NC[C@H]1O[C@H](O[C@H]2[C@H](O)[C@@H](O[C@H]3O[C@H](CO)[C@@H](O)[C@H](N)[C@H]3O)[C@H](N)C[C@@H]2N)[C@H](N)[C@@H](O)[C@@H]1O [bekanamycin] as the compound, how does the EC50 (Bos taurus) read?
**A.** 200 µM

**Q.** NCCCCCN [cadaverine] was tested. Which “mobilization of intracellular Ca^2+” value (tested at 2mM) did it give?
**A.** inactive

**Q.** With COc1ccc([C@@H]2Sc3ccccc3N(CCN(C)C)C(=O)[C@@H]2OC(C)=O)cc1 [diltiazem] as the compound, how does the “potentiation” value read?
**A.** effective

**Q.** What does the source list for C1CNCCNCCNCCNCCNCCN1 [hexacyclen, 1,4,7,10,13,16-hexaaza-cyclooctadecane]?
**A.** potency relative to NPS 383: 7 fold; EC50 (Bos taurus): 20 µM; potency relative to pentaethylenehexamine (cyclic analog versus straight chain): 25 fold

**Q.** CCC[C@@H]1C[C@@H](C(=O)N[C@@H]([C@H]2O[C@H](SC)[C@H](O)[C@@H](O)[C@H]2O)[C@@H](C)O)N(C)C1 [lincomycin] was tested. Which “effect on [Ca^2+]i (cytosolic Ca^2+ transients)” value did it give?
**A.** without effect

**Q.** With NCCCCNCCCN [spermidine] as the compound, how does the EC50 (Bos taurus) read?
**A.** 2000 µM

**Q.** [H]/N=C(/N)N[C@H]1[C@H](O)[C@@H](O)[C@H](O[C@@H]2O[C@@H](C)[C@](O)(C=O)[C@H]2O[C@@H]2O[C@@H](CO)[C@H](O)[C@@H](O)[C@@H]2NC)[C@@H](N/C(N)=N\[H])[C@@H]1O [streptomycin] was tested. Which EC50 (Bos taurus) did it give?
**A.** 600 µM
